Laboratory results: a collection of fitness landscapes (doi:10.1016/j.celrep.2020.107928)
Whole data set: some 81,000 sequences, median “one-hybrid fitness for binding parS DNA” near -0.17, cut for the highest 2% near 0.51. The list shows a part of the results.

B1: Caulobacter ParB omega fusion; a variant is named by its letters at X, in order, B8GW30 (parent)
chain: MESVVVGEPGMSEGRRGLGRGLSALLGEVDAAPAQAPGEQLGGSREAPIEILQRNPDQPRRTFREEDLEDLSNSIREKGVLQPILVRPSPDTAGEYQIVAGERAWRAAQRAGLKTVPIMVRELDDLAVLEIGIIENVQRADLNVLEEALSYKVLMEKFERTQENIAQTIGKSXSHVANXMRLLXLPDEVQSYLVSGELTAXHARAIAAAADPVALAKQIIEGGLSVRETEALARKAPNLSAGKSKGGRPPRVKDTDTQALESDLSSVLGLDVSIDHRGSTGTLTITYATLEQLDDLCNRLTRGI

Variants of: B1
Assay: one-hybrid fitness for binding parS DNA (scaled: cognate 1, non-cognate 0); higher = stronger binding
Conditions: with parS DNA site
Summary of the method: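 Pre- and post-selection plasmids were Illumina-sequenced, three replicate libraries were pooled, and any variant with under 10 reads was removed. The libraries were Caulobacter ParB with four specificity codons randomised, selected in E. coli USO through a HIS3 reporter whose site is 19 bp from the promoter. Cells grew 48 hours at 37°C on M9 without histidine, with 0.1 mM IPTG and 5 mM 3-AT. Fitness is the log change in variant-to-wild-type read ratio, rescaled against cognate and non-cognate.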

one-hybrid fitness for binding parS DNA, 0.906:
RCIC

one-hybrid fitness for binding parS DNA, 0.967:
RNSS

one-hybrid fitness for binding parS DNA, 0.315:
RMGM

one-hybrid fitness for binding parS DNA, 0.639:
RRGS

one-hybrid fitness for binding parS DNA, ≤ 0.2:
GIDT
PFPD
SAML
NRIA
RDND
NTIR
STVD
RDAT
CTCR
TNDG
TWCT
QPEI
PATK
IKPG
PAKA
LSEV
KDHA
SLRH
ASEP
DHDF
PYGM
YFAL
CGKC
NNWT
RDIH
PLKQ
MLQM
GQGS
QQLF
DGTW
PQVQ
RPIT
STRM
QMVN
VMTM
LANF
KPWR
TDLE
EQSC
CMYR
HSSH
LWVS
VVKF
CIRR
PYIV
ACPV
KRPC
TEVA
WSGT
ATNV
GHAF
GMPR
GNRY
SYWG
PKTF
AYAW
TCVG
PARP
YRAA
REIP
GPKH
YGRD
RDVG
IDDD
KNGM
RPET
PRHQ
TTFL
RAYL
TNGT
NLMT
RRHP
HHYW
KQEC
GFYR
KDYT
ELHV
KRSF
LNLK

one-hybrid fitness for binding parS DNA, 0.875:
RMVT
